Data taken from patent publication US6096871A, “Polypeptides altered to contain an epitope from the Fc region of an IgG molecule for increased half-life” (Genentech, Inc., priority 1995, dated 2000).

Assay: Single-dose pharmacokinetic study of anti-CD11/18 constructs in mice after intravenous administration (MAC-1 capture ELISA, two-compartment model)
Parameters: species or system mouse (male Crl:CD-1 (ICR)BR VAF/Plus)
Conditions: mouse, in vivo
Experimental: Pharmacokinetic Study of Anti-CD11/18 Constructs in Mice after Intravenous Administration
The objective of this single-dose pharmacokinetic study of five humanized huH52 anti-CD18 antibody fragments (constructs) in mice was to determine if non-specific clearance of antibody fragments is affected by alterations to amino acids in the constant domain. Serum samples were collected from male CD1 mice over a 24-hour period and human anti-CD18 serum concentrations were measured by ELISA.
The anti-CD18 antibody fragments investigated were derived from E.-coli-produced recombinant humanized monoclonal Fab antibody fragments as described above. The Fab fragment and the construct in which two Fab' subunits were joined together by two disulfide bonds were investigated. Lastly, three new versions of the original Fab were constructed by altering amino acids in the constant domain. See the Study Design table below for further description of the constructs.
The construct antigen-binding sites are directed against the CD18 subunit of the CD11 /CD18 glycoprotein complex on the surface of leukocytes. These antibody fragments are chimpanzee and human-specific; therefore, the serum pharmacokinetic information obtained in mice provides a description of the non-specific clearance of the fragments.
Because linear pharmacokinetics were expected in this study, a single-dose level of 2 mg/kg was chosen rather than multiple-dose levels.
The pharmacokinetics of the five antibody constructs were studied in male Crl:CD-1® (ICR)BR VAF/Plus® mice (approximately 20-30 g). Five groups, each consisting of twenty mice, received an intravenous bolus dose of 2 mg/kg via the tail vein. Blood samples were collected at 5 and 30 minutes, 1, 2, 4, 8, 12, 16, 20, and 24 hours post-dose. Serum was harvested and concentrations of the antibody fragments were determined in a MAC-1 capture ELISA as follows:
96-Well microtiter plates were coated overnight with murine anti-CD18 monoclonal antibody. After overnight incubation at 4° C., plates were washed three times with ELISA wash buffer and blocked for 1 hour with ELISA diluent. ELISA wash buffer is phosphate-buffered saline (PBS)/0.05% Polysorbate™ 20. […] The expiration period is 2 weeks from the date of preparation.
The ELISA diluent was PBS/0.5% BSA/0.05% Polysorbate™ 20/0.01% Thimerosal™/1 mM CaCl2 /1 mM MgCl2.
After blocking, the plates were washed again three times with ELISA wash buffer. […] After a 2-hour incubation period, the plates were washed six times with ELISA wash buffer and 100 μL of the mouse serum sample being tested or the standard containing the homologous recombinant human anti-CD18 Fab were added. The mouse serum samples were first diluted 1/10 in ELISA diluent and then a further 1/4 into sample diluent; 100 μL was taken from this initial 1/40 dilution. Sample diluent is 10% Swiss Webster Mouse serum in ELISA diluent.
Following a second 2-hour incubation, the plates were again washed six times with ELISA wash buffer and 100 μL of horseradish-peroxidase-conjugated F(ab')2 directed against a human Fab was added. After a 1-hour incubation at ambient temperature, the plates were washed with ELISA wash buffer as described above and 100 μL of phosphate-buffered saline, pH 7.2, containing 2.2 mmol/L orthophenylene diamine (OPD) and 0.012% (v/v) hydrogen peroxide (H2 O2) was added to each well. When color had fully developed, the reaction was stopped with 100 μL per well of 4.5 mol/L sulfuric acid. The absorbance of the well contents was measured at 492 nm minus 405 nm background absorbance using an automatic plate reader from SLT Labinstruments. Data were reduced by using a four-parameter, curve-fitting program based on an algorithm for least-squares estimation of non-linear parameters.
Serum concentration versus time data were analyzed utilizing a non-linear curve-fitting program and subsequent pharmacokinetics parameters were estimated.

B1: Fab v1B: Fab v1b incorporated oligos V1A and V1B (SEQ ID NO: 10) (antibody)
heavy: ASTKGPSVFPLAPSPKNSSMISNTPALGCLVKDYFPEPVTVSWNSGALTSGVHTFPAVLQSSGLYSLSSVVTVPHQSLGTQTYICNVNHKPSNTKVDKRV
AUC/dose/W (dose-normalized area under the serum concentration versus time curve): 23 µg·h/mL | CL/W (weight-normalized serum clearance): 1.33 mL/min/kg | Tmax (time of maximum observed concentration): 5.0 min | V1/W (volume of the central compartment): 0.0423 L/kg | t1/2 α (initial half-life): 4.8 min | t1/2 β (terminal half-life): 55.2 min | clearance (iv, 2 mg/kg): 1.33 mL/min/kg | clearance relative to double-disulfide (Fab')2 (iv, 2 mg/kg): about three-fold higher | cleared from the serum more slowly than the original Fab (iv, 2 mg/kg): 2 fold
